Assay results from PubChem BioAssay AID1476 (National Center for Advancing Translational Sciences (NCATS), 2009).
In all, about 200,000 compounds went through this assay and about 4,500 (2.2%) were called active. The inconclusive results got no clear call from the source; some entries with a clear call stand among them for comparison. Calls follow the shape of the dose curve; as a rule, active = well fitted inhibition curve with a large enough effect; inconclusive = small, poorly fitted or top-dose-only effect, or effect the other way; inactive = flat fitted curve, though single readings scatter. Potencies of inconclusive entries are doubtful fits and often do not repeat.

Target: Cruzipain (Trypanosoma cruzi) (UniProt P25779)
UniProt P25779, sequence (P25779 whole entry, looked up): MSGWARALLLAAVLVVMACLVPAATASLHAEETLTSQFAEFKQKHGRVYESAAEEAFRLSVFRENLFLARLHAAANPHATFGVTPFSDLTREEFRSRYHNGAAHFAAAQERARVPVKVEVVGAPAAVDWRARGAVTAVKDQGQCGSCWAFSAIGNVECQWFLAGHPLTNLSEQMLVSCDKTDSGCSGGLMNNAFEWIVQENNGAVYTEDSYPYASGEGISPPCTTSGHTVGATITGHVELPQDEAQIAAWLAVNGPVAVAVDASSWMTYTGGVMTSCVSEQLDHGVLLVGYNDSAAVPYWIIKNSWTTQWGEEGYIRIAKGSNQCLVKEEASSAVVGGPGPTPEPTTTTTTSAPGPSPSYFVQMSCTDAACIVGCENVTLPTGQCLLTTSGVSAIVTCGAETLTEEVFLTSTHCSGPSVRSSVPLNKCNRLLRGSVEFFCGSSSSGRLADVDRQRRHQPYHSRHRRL
Assay: qHTS Assay for Promiscuous and Specific Inhibitors of Cruzain (without detergent); also: nearly all actives have a fitted effect of over 40% in size;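 as to max response, negative = inhibition: plate controls were enzyme without inhibitor for no effect and buffer without enzyme for full effect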
Details: purified cruzain, Z-FR-AMC fluorescence, no detergent
Outline: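 Detergent-free condition (0.00005% Triton X-100) in acetate buffer pH 5.5 with DTT. 1.5 nM enzyme and compound were pre-mixed 15 min, then 2 uM Z-FR-AMC substrate added; reaction progress from fluorescence change between first and third reads (60 s).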
Potency is read from the fitted curve at half-maximal effect; tags tell the direction and shape of the fitted curve.

Q: Which Potency does the source give for `COc1cccc(NC(=O)CSc2nc3n[nH]c(C)c3c(=N)n2-c2cccc(OC)c2)c1` here?
A: Its Potency is inconclusive: 39.8 µM [activator, single point].

Q: For `CC1CCN(c2nn3c(=O)c(C(=O)NCc4ccc(Cl)cc4)cnc3s2)CC1`, which max response, negative = inhibition is on record?
A: The max response, negative = inhibition was inactive: -6.6%.

Q: For `COc1cc(SC#N)ccc1N=Cc1c(C)[nH]n(-c2cccc3ccccc23)c1=O`, which Potency is on record?
A: The Potency was active: 25.1 µM.

Q: For `CCOC(=O)C1(C)Oc2ccccc2C(c2ccc(OC)cc2)=C1C(=O)OC` (stereo not drawn), which Potency is on record?
A: Its Potency is inconclusive: 50.1 µM [activator, single point].

Q: `O=C(N/N=C/c1coc2ccccc2c1=O)c1ccccc1Br` was tested. Which Potency did it give?
A: Its Potency is inconclusive: 31.6 µM [inhibitor, single point].

Q: `CNc1cc([N+](=O)[O-])ccc1N/C=C/C(=O)c1ccc2c(c1)OCO2` was tested. Which Potency did it give?
A: The Potency was inconclusive: 39.8 µM [inhibitor, single point].

Q: With `O=c1c2ccccc2c(C=Nc2ccc(Cl)cn2)c(O)n1-c1cc(Cl)ccc1N1CCOCC1` as the compound, how does the Potency read?
A: Its Potency is inconclusive: 5.01 µM [activator, single point].

Q: `Cc1nnc(SCc2ccc(Cl)cc2)c2cc3occc3n12` was tested. Which Potency did it give?
A: Its Potency is inconclusive: 39.8 µM [activator, single point].

Q: For `COc1cccc(-c2nn(C)c3sc(C(=O)NCCc4ccc(Cl)cc4)cc23)c1`, which Potency is on record?
A: The Potency was inconclusive: 39.8 µM [inhibitor, single point].

Q: Which max response, negative = inhibition does the source give for `COc1ccc(-n2nc(C(=O)Nc3ccccc3OC)c3c4ccccc4n(C)c3c2=O)cc1Cl` here?
A: Its max response, negative = inhibition is inactive: -16.7%.

Q: How did the max response, negative = inhibition turn out when `CC(C)c1cnc2c(c1SCC(=O)Nc1ccccc1C(F)(F)F)c(=O)n(C)c(=O)n2C` was run?
A: Its max response, negative = inhibition is inactive: 4.78%.

Q: `Cc1ccc(CSc2nc(-c3cccs3)ccc2C#N)cc1` was tested. Which Potency did it give?
A: The Potency was active: 25.1 µM.

Q: Which Potency does the source give for `Cc1nc2c(sc3nc4c(cc32)COC(C)(C)C4)c(=O)n1CC(=O)NCc1ccco1` here?
A: The Potency was inconclusive: 25.1 µM [activator, partial curve].

Q: Which Potency does the source give for `CCC(=O)NCCC(c1ccco1)c1ccccc1OC` (stereo not drawn) here?
A: The Potency was inconclusive: 31.6 µM [activator, single point].

Q: For `COc1ccc(NS(=O)(=O)c2cc([N+](=O)[O-])ccc2N/N=C\c2c(C)[nH]c3ccccc23)cc1`, which Potency is on record?
A: Its Potency is inconclusive: 39.8 µM [inhibitor, single point].

Q: For `Cc1cc2nc(-c3ccc(SCC(=O)Nc4ccc5c(c4)OCCO5)nc3)[nH]c2cc1C`, which Potency is on record?
A: Its Potency is active: 15.8 µM.

Q: With `CCc1ccc2occ(CC(=O)Nc3c(C(=O)Nc4ccc(C)cc4)oc4ccccc34)c2c1` as the compound, how does the max response, negative = inhibition read?
A: The max response, negative = inhibition was inactive: -13.1%.

Q: Which Potency does the source give for `COC(=O)c1c(SCC(=O)Nc2cc(C)cc(C)c2)[nH]c2ccccc2c1=O` here?
A: Its Potency is inconclusive: 31.6 µM [activator, single point].

Q: `O=C(Nc1nnc(CSCc2ccccc2F)s1)c1cccc([N+](=O)[O-])c1` was tested. Which Potency did it give?
A: Its Potency is inconclusive: 39.8 µM [inhibitor, single point].

Q: Which Potency does the source give for `COc1ccc(CN(C(=O)/C=C/C(=O)c2ccc(OC)cc2O)C(C(=O)NC2CCCCC2)c2ccncc2)cc1` (stereo not drawn) here?
A: Its Potency is inconclusive: 15.8 µM [activator, partial curve].

Q: `O=C(CCC(=O)OCC(=O)c1ccc(Cl)cc1)Nc1ccc(Oc2ccccc2)cc1` was tested. Which Potency did it give?
A: The Potency was inconclusive: 39.8 µM [inhibitor, single point].

Q: `COc1ccccc1NS(=O)(=O)c1ccc(Cl)c(NC(=S)NC(=O)C2CCCC2)c1` was tested. Which Potency did it give?
A: Its Potency is inconclusive: 25.1 µM [inhibitor, single point].

Q: With `Cc1cc(Oc2ccc(Br)cc2)nc(SCC(=O)c2ccccc2)n1` as the compound, how does the max response, negative = inhibition read?
A: Its max response, negative = inhibition is inactive: -1.92%.

Q: `CCCc1cc2c(n1CCO)C(C)C1CN(C(=O)c3ccccc3)C(C)(C(=O)OC)C21` (stereo not drawn) was tested. Which Potency did it give?
A: Its Potency is inconclusive: 39.8 µM [activator, single point].

Q: Which Potency does the source give for `COc1ccc2nc(Nc3nc4cc5c(cc4s3)OCO5)sc2c1` here?
A: The Potency was inconclusive: 25.1 µM [inhibitor, single point].

Q: `Cc1noc(C)c1COc1ccc(C(=O)OCC(=O)Nc2cccc(S(=O)(=O)N3CCOCC3)c2)cc1` was tested. Which Potency did it give?
A: Its Potency is inconclusive: 39.8 µM [activator, single point].

Q: Which max response, negative = inhibition does the source give for `C/C(=N\NC(=O)c1ccc(CN(C)S(=O)(=O)c2ccc(C)cc2)cc1)c1ccc(OC(F)F)cc1` here?
A: Its max response, negative = inhibition is inactive: 3.53%.

Q: How did the Potency turn out when `C(#CCN1CCOCC1)COCCCOC(c1ccccc1)c1ccccc1` was run?
A: Its Potency is inconclusive: 31.6 µM [activator, single point].

Q: Which Potency does the source give for `Cc1ccc(C(=O)Nc2nnc(-c3cccs3)s2)cc1C` here?
A: Its Potency is active: 15.8 µM.

Q: `Cc1c(C)n(C)c2ccc(C(=O)Nc3cccc4ccccc34)cc12` was tested. Which Potency did it give?
A: The Potency was inconclusive: 25.1 µM [inhibitor, single point].

Q: Which max response, negative = inhibition does the source give for `CC(=O)[C@H](C(=N)C#N)C(=O)Nc1ccccc1` here?
A: Its max response, negative = inhibition is inactive: 7.9%.

Q: Which max response, negative = inhibition does the source give for `CCC(=O)N1c2nc(-c3ccco3)nn2C2(CCCCC2)[C@@H]2CCCC[C@@H]21` here?
A: The max response, negative = inhibition was inactive: -0.668%.

Q: For `COc1ccccc1/C=C/C(=O)NC(=S)Nc1ccc(S(=O)(=O)N(C)c2ccccc2)cc1`, which Potency is on record?
A: Its Potency is active: 3.98 µM.

Q: How did the Potency turn out when `Cc1nc2c3cnn(-c4ccc(C)c(C)c4)c3ncn2n1` was run?
A: The Potency was inconclusive: 31.6 µM [activator, single point].

Q: With `COc1ccccc1NCc1cccn1-c1nnc(N2CCOCC2)s1` as the compound, how does the max response, negative = inhibition read?
A: The max response, negative = inhibition was inactive: 5.08%.

Q: How did the Potency turn out when `CCOc1ccc(C2=Nn3c(nnc3-c3ccccc3)SC2)cc1Cl` was run?
A: Its Potency is active: 20 µM.

Q: How did the Potency turn out when `COCCN1C(=O)C(CC(=O)Nc2ccc(C(C)=O)cc2)SC1=Nc1ccccc1` (stereo not drawn) was run?
A: Its Potency is inconclusive: 31.6 µM [activator, single point].

Q: With `CCOC(=O)C1=C(CS(=O)(=O)c2ccc(C)cc2)NC(=O)NC1c1ccc(C(C)C)cc1` (stereo not drawn) as the compound, how does the max response, negative = inhibition read?
A: The max response, negative = inhibition was inactive: 8.65%.

Q: For `CC(C)Oc1ccc(CNC(=O)CN2C(=O)CCc3cc(S(=O)(=O)N4CCCCC4)ccc32)cc1`, which Potency is on record?
A: The Potency was inconclusive: 39.8 µM [activator, single point].

Q: For `Cc1ccc(CSCc2ccc(C(=O)NCCc3ccc(Cl)cc3)o2)cc1`, which max response, negative = inhibition is on record?
A: The max response, negative = inhibition was inactive: -6.26%.

Q: Which Potency does the source give for `COc1cccc(C(=O)NC(=S)Nc2ccc(N3CCCC3)cc2)c1` here?
A: Its Potency is inconclusive: 31.6 µM [inhibitor, single point].

Q: `NCCC[C@@H](CC(=O)N[C@@H]1CCCC[C@H]1C(=O)N[C@H](CC(=O)N[C@@H](CCC(=O)O)CC(=O)O)Cc1c[nH]c2ccccc12)NC(=O)C[C@H](Cc1ccccc1)NC(=O)[C@@H]1CCCC[C@H]1N` was tested. Which Potency did it give?
A: The Potency was inconclusive: 31.6 µM [activator, single point].

Q: Which Potency does the source give for `CCOC(=O)N1CCN(C(=O)COc2ccc(S(=O)(=O)Nc3ccc(OCC)cc3)cc2)CC1` here?
A: Its Potency is inconclusive: 31.6 µM [activator, single point].

Q: For `COc1ccc(/C=N/c2sc3c(c2C#N)CCN(Cc2ccccc2)C3)c(O)c1`, which Potency is on record?
A: The Potency was inconclusive: 39.8 µM [inhibitor, single point].

Q: With `CCOC(=O)C1=C(C)N=c2s/c(=C\c3cccn3C)c(=O)n2C1c1cccc(OC)c1OC` (stereo not drawn) as the compound, how does the Potency read?
A: Its Potency is inconclusive: 39.8 µM [activator, single point].

Q: Which Potency does the source give for `COc1cc(/C=N/NC(=O)COc2c(C)cc([N+](=O)[O-])cc2C)ccc1OC(=O)c1ccccc1` here?
A: The Potency was active: 25.1 µM.

Q: How did the Potency turn out when `COc1ccc(C(c2nnnn2Cc2cccs2)N2CCN(c3ccc(F)cc3)CC2)cc1OC` (stereo not drawn) was run?
A: Its Potency is inconclusive: 39.8 µM [activator, single point].

Q: With `Cc1cccc(NC(=O)CSc2nc(-c3ccccc3)cn2-c2ccccc2)c1C` as the compound, how does the Potency read?
A: The Potency was inconclusive: 39.8 µM [inhibitor, single point].

Q: How did the max response, negative = inhibition turn out when `Cc1ccc(C)c(-n2c(CCC(=O)O)ccc2-c2ccc(Cl)cc2)c1` was run?
A: The max response, negative = inhibition was inactive: -12.8%.

Q: Which Potency does the source give for `O=C(COC(=O)c1ccc(-c2nnc(-c3ccccc3)o2)cc1)c1ccccc1` here?
A: The Potency was active: 7.94 µM.

Q: `COC(=O)[C@@H]1C[C@H]2CC[C@H](O)C[C@H]2N1Cc1c(F)cccc1Cl` was tested. Which max response, negative = inhibition did it give?
A: Its max response, negative = inhibition is inactive: -0.514%.

Q: `Cc1ccc(C(=O)CC2(O)C(=O)N(CCc3ccccc3)c3ccc(Cl)cc32)cc1` (stereo not drawn) was tested. Which max response, negative = inhibition did it give?
A: Its max response, negative = inhibition is inactive: 10.6%.

Q: Which max response, negative = inhibition does the source give for `Nc1ccc[n+](Cc2ccccn2)c1` here?
A: The max response, negative = inhibition was inactive: -15.8%.

Q: For `Cc1ccc(C(=O)Nc2sc3c(c2C#N)CCCCC3)cc1C`, which Potency is on record?
A: The Potency was inconclusive: 39.8 µM [inhibitor, single point].

Q: `Cc1ccc(CNC(=O)c2cc3c(C)nc4ccccc4c3o2)cc1` was tested. Which Potency did it give?
A: The Potency was inconclusive: 31.6 µM [activator, single point].

Q: Which max response, negative = inhibition does the source give for `Cc1csc2nc(COc3ccccc3NC(=O)c3ccco3)cc(=O)n12` here?
A: Its max response, negative = inhibition is inactive: -1.15%.

Q: With `CSc1cccc(NC(=O)Cn2c3ncccc3c(=O)n2-c2ccc(C)cc2)c1` as the compound, how does the Potency read?
A: Its Potency is inconclusive: 31.6 µM [inhibitor, single point].

Q: Which max response, negative = inhibition does the source give for `CCc1c(-c2ccccc2)nc2ccccc2c1C(=O)NCCc1ccccc1` here?
A: Its max response, negative = inhibition is inactive: 5.1%.

Q: `Cc1c2oc3c(C)ccc(C(=O)N[C@@H]4C(=O)N[C@@H](C(C)C)C(=O)N5CCC[C@@H]5C(=O)N(C)CC(=O)N(C)[C@@H](C(C)C)C(=O)O[C@H]4C)c3nc-2c(C(=O)N[C@@H]2C(=O)N[C@@H](C(C)C)C(=O)N3CCC[C@@H]3C(=O)N(C)CC(=O)N(C)[C@@H](C(C)C)C(=O)O[C@H]2C)c(N)c1=O` was tested. Which Potency did it give?
A: The Potency was inconclusive: 15.8 µM [activator, full curve].

Q: With `CC(=O)c1ccc(N2CCN(S(=O)(=O)c3ccc(-c4cc(C(F)(F)F)on4)s3)CC2)cc1` as the compound, how does the max response, negative = inhibition read?
A: The max response, negative = inhibition was inactive: -3.96%.

Q: With `COc1ccccc1NC(=O)COc1ccc(C(=O)OCC(=O)N(C(C)C)C(C)C)cc1OC` as the compound, how does the max response, negative = inhibition read?
A: Its max response, negative = inhibition is inconclusive: 154% [activator].

Q: For `Cc1ccccc1OCC(=O)OCc1cc(=O)n2nc(C3CCCCC3)sc2n1`, which Potency is on record?
A: The Potency was inconclusive: 3.16 µM [activator, full curve, poor fit].

Q: Which Potency does the source give for `COc1ccc(S(=O)(=O)N2CCOC2CNC(=O)C(=O)NCCc2c[nH]c3ccccc23)cc1C` (stereo not drawn) here?
A: The Potency was inconclusive: 39.8 µM [inhibitor, single point].
